Some of the results follow.
system: T1, C. trachomatis L2/434/Bu expressing GFP (CTL2-GFP); parameters: species or system HeLa; C. trachomatis total inclusion area by high-content imaging, normalised to DMSO; conditions: total inclusion area; 28.5 h, 10 µM; inhibitor
T1 construct: L2/434/Bu GFP intracellular growth in HeLa cells
Outline: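 Host cell viability was gauged from Hoechst-stained nuclei counts, while chlamydial growth was taken from total inclusion area and inclusion number per well. Cells were fixed and imaged by high-content microscopy once bulk GFP and resorufin fluorescence had been measured.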

Point of comparison: `COc1ccc(C(=O)N2CCC3(CCN(C(=O)c4cccc(C#N)c4)C3)C2)cc1OC` (centres unmarked) [CBK131773], “% of control remaining” value 92.5869. Against it:
- O=C(Nc1ccccc1C(=O)c1ccccc1)c1ccccn1 [CBK288150] — lower, 83.5524
- O=C(NC(c1ccc2c(c1)CCO2)C1CC(O)C1)c1cccc(=O)[nH]1 (centres unmarked) [CBK307463] — lower, 23.2927
- Cc1nc2sc3c(c2c2nc(-c4ccncc4)nn12)CCCC3 [CBK288541] — lower, 78.3266
- c1csc(-c2nc3[nH]c4ccccc4n3n2)c1 [CBK264118] — higher, 100.105
- O=C(CNC(=O)c1cccc(Cl)c1)N/N=C/C=C/c1ccccc1 [CBK261947] — lower, 68.3153
- NC(=S)Nn1c(CCC(=O)O)ccc1-c1cccs1 [CBK265952] — higher, 103.983
- Fc1ccc(OCCCN2CCC3(CC2)OCCc2c3[nH]c3ccccc23)cc1 [CBK107736] — lower, 89.7859
- Cc1ccc(C(=O)Oc2cccc(NC(=O)c3ccco3)c2)cc1S(=O)(=O)N1CCOCC1 [CBK263211] — higher, 100.686
- CCc1ccc(CNC(=O)Cn2nnnc2-c2ccc(CN3CCC(C)CC3)cn2)cc1 [CBK153930C] — lower, 79.7645
- O=C(CSc1nnc(CCc2ccccc2)n1-c1ccc(Cl)cc1)c1ccccc1 [CBK266277] — higher, 104.787
- CN(C)c1nc(N(C)C)n(Cc2ccc(F)cc2)n1 [CBK018839] — lower, 61.5415
- O=C(NCCN1CCOCC1)c1cccc(S(=O)(=O)N2CCCC2)c1 [CBK267316] — higher, 118.227
- CC(=O)NCCc1ccc(S(=O)(=O)N2CCN(Cc3ccccc3)CC2)cc1 [CBK268458] — higher, 93.1465
- CC(C)(CO)CNc1nc(-c2ccsc2)cnc1N [CBK063499] — lower, 90.4946
- CC(C)(C)NC(=O)Cn1cncc1-c1cnn(C2CCCCC2)c1 [CBK281701] — higher, 103.318
- O=C(O)c1cc(NC/C=C/c2ccccc2)ccc1N1CCOCC1 [CBK269806] — lower, 68.0151
- CS(=O)(=O)c1ncc(Cl)c(C(=O)N(Cc2ccccc2)Cc2ccco2)n1 [CBK269603] — lower, 0.3506
- COc1ccc(OCC2CCN(C(=O)[C@@H]3C[C@@H]4C=C[C@H]3C4)CC2)cc1 [CBK282218] — lower, 72.1099
- Nc1nc(N)c2nc(C3OCCO3)cnc2n1 [CBK027115] — lower, 60.551
- COC(=O)[C@@H]1Cc2ncn(Cc3ccc(Cl)cc3)c2CN1C(=O)c1ccc(C#N)cc1 [CBK288984] — lower, 88.146
- O=C(Nc1ccc2c(c1)C(=O)NC2=O)c1ccccc1 [CBK270384] — higher, 104.124
- Cn1nc2c(cc1=O)CN(C(=O)c1cnc(C(C)(C)C)nc1)CC2 [CBK304293] — higher, 102.917
- CC(=O)c1ccc2c(c1)[C@@H]1C=CC[C@@H]1[C@H](C(=O)O)N2 [CBK287093] — higher, 111.182
- O=C(Cn1cnnn1)NCc1ccccc1 [CBK200255] — higher, 98.4899
- CCCn1cnc2cc(NC(=O)Cn3cccc(C(=O)Nc4ccc(F)cc4)c3=O)ccc21 [CBK286060] — higher, 97.8165
- COc1ccc(OC)c([C@@H]2CN(Cc3ccccc3)C[C@H]2NC(=O)c2ccco2)c1 [CBK286479] — lower, 89.541
- Cc1cc(C(=O)N2Cc3ccccc3C2)n[nH]1 [CBK200328] — higher, 108.814
- O=C1CC(C(=O)Nc2ccc(Cl)cc2)c2c(nc(SCc3ccccc3F)[nH]c2=O)N1 (centres unmarked) [CBK294437] — higher, 101.287
- NC(=O)C1CCN(c2ccc(-c3noc([C@@H]4CCCN4Cc4cccnc4)n3)cn2)CC1 [CBK288882] — higher, 115.764
- Cc1nnc([C@H]2CCN(Cc3ccc(F)cc3)C2)o1 [CBK289391] — higher, 111.197
- O=C(COc1ccc(Cl)cc1)NNC(=O)c1cccnc1 [CBK261044] — higher, 101.954
- C=CCN1C(=O)CC2(C1=O)C(=O)N(CC)c1ccc(F)cc12 (centres unmarked) [CBK075316] — lower, 75.4255
- Cc1c(C(=O)O)sc2nc(SCC(=O)Nc3ccc(OCc4ccccc4)cc3)[nH]c(=O)c12 [CBK296992] — higher, 101.155
- Cc1cc2n(n1)[C@@H](C(F)F)C[C@@H](C1CCCN(C(=O)C3CC3)C1)N2 (some centres unmarked) [CBK284723] — lower, 85.5626
- CCCC(=O)N1CCCC1c1cc2n(n1)[C@@H](C(F)(F)F)C[C@@H](C)N2 (some centres unmarked) [CBK283003] — higher, 114.33
- COc1ccc(Cl)c(Cn2c(NCc3ccccn3)nc3c2c(=O)n(C)c(=O)n3C)c1 [CBK268965] — higher, 102.967
- O=C(c1ccc(F)cc1)C1CCN(Cc2cccnc2)CC1 [CBK149118] — lower, 59.5556
- Cc1ncccc1C(=O)N1CCC2(CCc3ccccc3C(=O)N2)C1 (centres unmarked) [CBK283338] — lower, 80.327
- CN(C)C(=O)c1ccc(-c2cnc3[nH]c(=O)n(CCCN4CCOCC4)c3n2)cc1 [CBK064828] — lower, 77.4858
- Cc1cnccc1N1CCN(C(=O)CCCOc2ccccc2)CC1 [CBK304677] — lower, 63.6543
- O=C(NC1CCCCC1)NC1CCN(Cc2nnnn2Cc2ccco2)CC1 [CBK085007] — lower, 87.6117
- CCCN1CCC(NCC(C)(C)CN(C)C)CC1 [CBK261934] — higher, 99.928
- COc1cc(-c2cncc(NCc3ccco3)n2)cc(OC)c1OC [CBK065259] — lower, 80.6236
- COc1ccc(-c2cc(C(F)(F)F)nc(SCC(=O)NN3CCN(C)CC3)n2)cc1 [CBK266115] — lower, 82.2201
- O=C1CC(c2ccc(S(=O)(=O)NCc3ccccc3)cc2)CN1 (centres unmarked) [CBK270155] — lower, 66.3636
- COc1ccc(CN2CCN(c3ccc(F)cc3)CC2)cc1OCc1ccccc1 [CBK261894] — higher, 94.9476
- COc1ccccc1-c1nnc2sc(-c3cnccn3)nn12 [CBK268428] — higher, 122.082
- O=C(O)CC(Cc1ccccc1)(C(=O)O)c1ccccc1 (centres unmarked) [CBK287133] — lower, 92.0644
- CN1CCN(C(=O)CCc2nc(-c3ccc(Cl)cc3)no2)CC1 [CBK268304] — higher, 102.175

From article PMC12040169 (PLOS Biology, 2025)
